Measurements from PubChem BioAssay (Tox21).
Several values for one entry are separate records, joined by “and”; a condition that tells them apart may be missing. Identical values can stand only once. The inconclusive results got no clear call from the source; some entries with a clear call stand among them for comparison. Potencies of inconclusive entries are doubtful fits and often do not repeat. Some structures have more than one record in an assay (separate samples or runs), and their calls can disagree. Activity calls are given as the source filed them. Unless noted, calls come from the whole dose curve; as a rule, active = well fitted curve in the direction sought with a large enough effect in the repeat runs; inconclusive = weak or mixed curves; inactive = no such curve, though single readings can be large; an effect the other way counts as inactive or inconclusive.

Legend:
[1] = target: Thyrotropin-releasing hormone receptor (Homo sapiens) (UniProt P34981); experiment: qHTS assay to identify small molecule agonists of the thyrotropin-releasing hormone receptor (TRHR) signaling pathway (AID 1346891; calls by dose curve; for activation: % is set by controls: 0 for no effect and ±100 for the full control effect); details: TRHR-HEK293 calcium fluorescence, agonist mode; series mostly up to 57.6 µM
Chain of UniProt P34981 (P34981 whole entry, looked up): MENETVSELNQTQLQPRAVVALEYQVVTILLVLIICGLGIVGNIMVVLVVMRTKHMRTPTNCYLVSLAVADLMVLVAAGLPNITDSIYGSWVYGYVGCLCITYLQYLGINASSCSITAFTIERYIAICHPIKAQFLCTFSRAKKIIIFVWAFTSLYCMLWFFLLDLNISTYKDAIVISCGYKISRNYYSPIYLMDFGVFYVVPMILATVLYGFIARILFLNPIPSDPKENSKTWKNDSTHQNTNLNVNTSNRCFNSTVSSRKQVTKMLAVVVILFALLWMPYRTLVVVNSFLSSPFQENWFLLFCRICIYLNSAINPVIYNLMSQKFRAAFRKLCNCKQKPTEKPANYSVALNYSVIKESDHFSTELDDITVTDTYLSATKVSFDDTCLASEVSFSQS
Outline: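 Agonist-mode intracellular calcium readout: kinetic fluorescence over 3 min at 1 s intervals after compound addition to TRHR-HEK293 cells (18 h seeded, 2 h dye-loaded at 37 C). Fifteen concentrations, triplicates.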

[2] = qHTS assay to identify small molecule antagonists of the TGF-beta/Smad signaling pathway (AID 1346924; active = well fitted inhibition curve with a large enough effect in the signal ratio in the repeat runs, not every such curve was filed as active; inconclusive = weak or mixed curves; the % refers to the signal ratio); details: SBE-bla HEK293T, TGF-beta/Smad reporter, beta-lactamase ratio
Outline: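 Read-out was FRET-substrate fluorescence (405 nm excitation; 460 and 530 nm emission) after 2 h at room temperature. Before that, cells carrying a Smad-binding-element beta-lactamase reporter in HEK 293T had been stimulated 5 h at 37 C with TGF-beta1 (0.25 ng/mL addition solution) in the presence of test compound.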

[3] = Human pregnane X receptor (PXR) small molecule agonists, qHTS cell viability counter screen (AID 1346977); details: PXR-Luc HepG2 viability, CellTiter-Fluor, 24 h; series mostly up to 92.4 µM; note: nearly all actives have a fitted effect of over 50% in size
Outline: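 Same-well viability read: CellTiter-Fluor added after 23 hr compound exposure, fluorescence measured 1 hr later. Cells were PXR-Luc HepG2 seeded at 2,000/well in 5% charcoal-stripped FBS medium, rested 5 hr before dosing at 37 C.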

[4] = Caspase-3/7 induction in CHO-K1 cells by small molecules, qHTS cell viability counter screen (AID 1346979); details: CellTiter-Fluor fluorescence, 17 h; series mostly up to 92.4 µM; note: nearly all actives have a fitted effect of over 35% in size
Outline: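 Cytotoxicity counter screen: CellTiter-Fluor added to compound-treated wild-type CHO-K1 cells at 16 h (37C, 5% CO2), fluorescence measured 1 h later; same wells as caspase-3/7 measurement.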

[5] = Caspase-3/7 induction in HepG2 cells by small molecules, qHTS cell viability counter screen (AID 1346981); details: CellTiter-Fluor fluorescence, 17 h; series mostly up to 92.4 µM; note: nearly all actives have a fitted effect of over 30% in size
Outline: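 Fluorescence read-out of live-cell protease activity (CellTiter-Fluor) after 1 hr with reagent. This was measured in the same wells as the caspase-3/7 luminescence, on HepG2 cells exposed to DMSO-dissolved compounds for 16 hr at 37 C.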

[6] = target: Nuclear receptor subfamily 1 group I member 2 (Homo sapiens) (UniProt O75469); experiment: Human pregnane X receptor (PXR) small molecule agonists, qHTS assay (AID 1346982); details: PXR-Luc HepG2, CYP3A4 luciferase reporter, 24 h; series mostly up to 92.4 µM; note: nearly all actives have a fitted effect of over 35% in size
Outline: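 HepG2 PXR-Luc reporter line, 5% charcoal-stripped FBS; 5 hr pre-incubation, compound (DMSO) 24 hr at 37 C/5% CO2; ONE-Glo 30 min RT; luminescence read-out.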

[7] = target: Cytochrome P450 2D6 (Homo sapiens) (UniProt P10635); experiment: Cytochrome P450 Family 2 Subfamily D Member 6 (CYP2D6) small molecule antagonists: luciferase reporter qHTS assay (AID 1671196); details: P450-Glo CYP2D6 enzyme assay, luciferin luminescence, 1 h; series mostly up to 115 µM; note: nearly all actives have a fitted effect of over 50% in size
Chain of UniProt P10635 (P10635 whole entry, looked up): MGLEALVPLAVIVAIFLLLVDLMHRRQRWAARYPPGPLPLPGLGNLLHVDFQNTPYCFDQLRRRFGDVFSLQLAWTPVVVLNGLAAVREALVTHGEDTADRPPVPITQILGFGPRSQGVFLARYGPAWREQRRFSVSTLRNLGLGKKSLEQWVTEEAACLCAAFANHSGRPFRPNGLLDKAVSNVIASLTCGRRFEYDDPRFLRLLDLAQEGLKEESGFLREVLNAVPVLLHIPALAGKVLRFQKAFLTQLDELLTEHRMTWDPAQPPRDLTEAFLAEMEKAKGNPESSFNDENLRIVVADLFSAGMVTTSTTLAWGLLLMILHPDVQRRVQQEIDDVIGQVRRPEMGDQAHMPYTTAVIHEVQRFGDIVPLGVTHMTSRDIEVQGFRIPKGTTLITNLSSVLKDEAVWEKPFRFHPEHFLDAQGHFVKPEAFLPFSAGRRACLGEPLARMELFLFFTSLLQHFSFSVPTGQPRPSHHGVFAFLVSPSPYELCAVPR
Outline: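 Luminogenic proluciferin substrate, CYP2D6 enzyme; 10 min RT preincubation with compound, NADPH regeneration system added, 1 h RT. Stop/detection reagent, 20 min RT, luminescence read (RLU). Signal proportional to CYP activity.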

[8] = target: Nuclear receptor subfamily 1 group I member 2 (Homo sapiens) (UniProt O75469); experiment: Human pregnane X receptor (PXR) activation by small molecules, qHTS assay (AID 1346985); details: DPX-2 HepG2 CYP3A4-luciferase, 24 h; series mostly up to 38.3 µM; note: nearly all actives have a fitted effect of over 40% in size
Outline: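 DPX-2 cells (HepG2 co-transfected with a PXR response element and a CYP3A4-promoter luciferase construct) were seeded at 2,000 per well, rested 5 hr at 37C, then exposed to DMSO-dissolved compounds for 24 hr. Activation was read as luciferase luminescence.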

[9] = target: Cytochrome P450 2C9 (Homo sapiens) (UniProt P11712); experiment: Cytochrome P450 Family 2 Subfamily C Member 9 (CYP2C9) small molecule antagonists: luciferase reporter qHTS assay (AID 1671198); details: P450-Glo CYP2C9 enzyme assay, luciferin luminescence; series mostly up to 115 µM; note: nearly all actives have a fitted effect of over 50% in size
Chain of UniProt P11712 (P11712 whole entry, looked up): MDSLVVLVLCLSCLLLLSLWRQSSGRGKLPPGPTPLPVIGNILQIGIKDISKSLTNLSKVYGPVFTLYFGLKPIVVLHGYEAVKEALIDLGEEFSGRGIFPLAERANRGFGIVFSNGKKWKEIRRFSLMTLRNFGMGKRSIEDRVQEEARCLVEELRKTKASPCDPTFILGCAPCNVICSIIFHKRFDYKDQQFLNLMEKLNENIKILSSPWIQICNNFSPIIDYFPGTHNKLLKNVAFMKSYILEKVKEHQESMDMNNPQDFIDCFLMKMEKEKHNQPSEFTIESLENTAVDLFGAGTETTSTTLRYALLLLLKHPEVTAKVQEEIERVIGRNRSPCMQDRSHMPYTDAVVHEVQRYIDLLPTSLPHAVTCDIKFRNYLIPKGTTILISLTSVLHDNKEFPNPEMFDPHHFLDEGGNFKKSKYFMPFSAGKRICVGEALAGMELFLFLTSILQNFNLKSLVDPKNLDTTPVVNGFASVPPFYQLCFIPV
Outline: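 P450-Glo proluciferin substrate with CYP2C9 enzyme; 10 min RT preincubation, then NADPH regeneration 1 h at 37C; luciferin detection reagent 20 min RT, luminescence in relative luminescence units.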

[10] = Caspase-3/7 induction in HepG2 cells by small molecules, qHTS assay (AID 1346978); details: HepG2 caspase-3/7 activation, Caspase-Glo luminescence, 17 h; series mostly up to 92.4 µM; note: nearly all actives have a fitted effect of over 15% in size
Outline: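 Wild-type HepG2 cells, 2,000/well, settled 5 hr at 37 C and 5% CO2, then compound-treated for 17 hr; caspase-3/7 activity read by luminescent Caspase-Glo 3/7 after 30 min at room temperature.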

[11] = target: Voltage-gated inwardly rectifying potassium channel KCNH2 (Homo sapiens) (UniProt Q12809); experiment: Human Ether-a-go-go-Related Gene (hERG) channel small molecule antagonists: fluorescence cell-based qHTS assay (AID 1671200); details: hERG-U2OS cells, FluxOR thallium flux fluorescence; series mostly up to 76.8 µM; note: nearly all actives have a fitted effect of over 50% in size
Chain of UniProt Q12809 (Q12809 whole entry, looked up): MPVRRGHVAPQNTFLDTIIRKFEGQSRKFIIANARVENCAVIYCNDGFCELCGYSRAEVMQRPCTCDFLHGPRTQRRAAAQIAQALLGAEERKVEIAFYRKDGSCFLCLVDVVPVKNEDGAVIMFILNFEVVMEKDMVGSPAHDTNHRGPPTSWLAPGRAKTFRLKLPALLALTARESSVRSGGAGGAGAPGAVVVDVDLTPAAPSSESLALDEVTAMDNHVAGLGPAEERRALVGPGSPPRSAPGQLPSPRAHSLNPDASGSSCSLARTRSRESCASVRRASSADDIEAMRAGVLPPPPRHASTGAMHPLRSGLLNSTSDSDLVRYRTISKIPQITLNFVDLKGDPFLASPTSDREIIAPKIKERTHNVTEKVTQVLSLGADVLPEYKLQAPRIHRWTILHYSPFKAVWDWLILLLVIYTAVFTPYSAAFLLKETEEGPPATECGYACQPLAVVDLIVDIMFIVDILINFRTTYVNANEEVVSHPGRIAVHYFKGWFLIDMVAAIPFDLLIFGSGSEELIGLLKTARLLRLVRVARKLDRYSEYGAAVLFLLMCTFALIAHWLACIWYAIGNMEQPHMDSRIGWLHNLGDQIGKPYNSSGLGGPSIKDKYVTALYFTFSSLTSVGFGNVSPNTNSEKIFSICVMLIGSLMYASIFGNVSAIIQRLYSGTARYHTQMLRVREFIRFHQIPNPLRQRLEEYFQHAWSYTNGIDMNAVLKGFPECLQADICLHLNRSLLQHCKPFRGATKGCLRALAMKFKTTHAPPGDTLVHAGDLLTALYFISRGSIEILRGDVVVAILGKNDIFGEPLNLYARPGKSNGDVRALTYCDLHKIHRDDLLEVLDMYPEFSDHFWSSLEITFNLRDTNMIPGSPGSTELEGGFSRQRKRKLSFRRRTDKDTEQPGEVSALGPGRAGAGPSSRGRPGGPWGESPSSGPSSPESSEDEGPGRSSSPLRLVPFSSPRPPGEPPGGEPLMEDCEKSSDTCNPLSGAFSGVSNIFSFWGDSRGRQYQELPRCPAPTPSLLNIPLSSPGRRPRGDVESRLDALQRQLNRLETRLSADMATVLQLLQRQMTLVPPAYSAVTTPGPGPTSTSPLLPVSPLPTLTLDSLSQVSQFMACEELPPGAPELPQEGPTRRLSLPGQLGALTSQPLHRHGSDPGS
Outline: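 Thallium flux as potassium surrogate: FluxOR II dye loaded 1 h at room temperature into hERG-expressing U2OS cells, then stimulus buffer added after 10 min. Kinetic 480 nm excitation/540 nm emission read, 2 min.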

[12] = Caspase-3/7 induction in CHO-K1 cells by small molecules, qHTS assay (AID 1346980); details: CHO-K1 caspase-3/7 induction, Caspase-Glo luminescence, 17 h; series mostly up to 92.4 µM; note: nearly all actives have a fitted effect of over 15% in size
Outline: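 Wild-type CHO-K1 cells exposed to compounds for 17hr at 37 C, 5% CO2. Caspase-3/7 activity then measured by Caspase-Glo 3/7 luminescence after 30min at room temperature.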

[13] = target: Cytochrome P450 2C19 (Homo sapiens) (UniProt P33261); experiment: Cytochrome P450 Family 2 Subfamily C Member 19 (CYP2C19) small molecule antagonists: luciferase reporter qHTS assay (AID 1671197); details: P450-Glo CYP2C19 enzyme, luciferin luminescence, 1 h; series mostly up to 115 µM; note: nearly all actives have a fitted effect of over 65% in size
Chain of UniProt P33261 (P33261 whole entry, looked up): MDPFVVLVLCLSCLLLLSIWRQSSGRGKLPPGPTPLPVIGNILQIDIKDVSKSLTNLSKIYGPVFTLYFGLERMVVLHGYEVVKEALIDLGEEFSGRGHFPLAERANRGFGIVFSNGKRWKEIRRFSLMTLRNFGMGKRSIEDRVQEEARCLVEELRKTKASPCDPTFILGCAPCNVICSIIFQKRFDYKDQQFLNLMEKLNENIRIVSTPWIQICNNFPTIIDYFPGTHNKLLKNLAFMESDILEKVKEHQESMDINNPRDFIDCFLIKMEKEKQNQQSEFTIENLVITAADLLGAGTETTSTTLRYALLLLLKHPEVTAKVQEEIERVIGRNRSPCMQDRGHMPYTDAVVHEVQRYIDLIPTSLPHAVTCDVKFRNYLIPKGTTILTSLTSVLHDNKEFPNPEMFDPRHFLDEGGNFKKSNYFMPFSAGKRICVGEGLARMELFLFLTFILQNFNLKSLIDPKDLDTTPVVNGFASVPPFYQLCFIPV
Outline: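 Inhibition of CYP2C19 was scored from loss of luminescence in a P450-Glo proluciferin substrate assay, NADPH-started and run 1 h at 37C, with ketoconazole as positive control.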

[14] = activity, negative = inhibition: at 76.8 µM (top of the series) unless noted
Potency is the fitted concentration of half-maximal effect; tags give direction and shape of the fitted curve or compound fluorescence and quenching.

## COc1ccccc1OCC1CNC(=O)O1 (configuration not stated)
[1]
  Potency: inactive

## O=c1c(O)c(-c2ccc(O)c(O)c2)oc2cc(O)cc(O)c12
[2]; [14]
  Potency: inconclusive: 15.5 µM
[2]; at 35.3 µM (top of the series)
  activity, negative = inhibition: inconclusive: 31.6%
[2]; at 76.8 µM (top of the series)
  activity, negative = inhibition: inconclusive: 22.2% and inconclusive: 29.9%
[3]
  Potency: inconclusive: 43.3 µM [cytotoxic, partial curve] and inconclusive: 39.8 µM [cytotoxic, partial curve] and inconclusive: 30.6 µM [cytotoxic, partial curve]
[4]
  Potency: inconclusive: 69.1 µM [cytotoxic, single point] and inconclusive: 33.5 µM [cytotoxic]
[5]
  Potency: inconclusive: 69.1 µM [cytotoxic, single point] and inconclusive: 33.5 µM [cytotoxic, single point]
[6]
  Potency: inconclusive: 61.1 µM [activator, partial curve] and inconclusive: 13.3 µM [activator, single point]
[7]
  Potency: inconclusive: 63.8 µM [inhibitor, partial curve, poor fit] and inconclusive: 35.6 µM [inhibitor, partial curve, poor fit]

## C#C[C@]1(O)CC[C@H]2[C@@H]3CCc4cc(OC)ccc4[C@H]3CC[C@@]21C
[2]; at 35.3 µM (top of the series)
  activity, negative = inhibition: inconclusive: -17.4%
[2]; at 76.8 µM (top of the series)
  activity, negative = inhibition: inconclusive: -28.7%
[4]
  Potency: active: 27.3 µM and active: 18.8 µM
[8]
  Potency: inconclusive: 8.91 µM [activator, partial curve, poor fit]
[7]
  Potency: inconclusive: 31.7 µM [inhibitor, partial curve]

## CCCCC
[1]
  Potency: active: 27.1 µM
[3]
  Potency: inconclusive: 60.1 µM [cytotoxic, partial curve]
[5]
  Potency: inconclusive: 67.5 µM [cytotoxic, single point]

## CC(=O)Oc1ccc(C(c2ccc(OC(C)=O)cc2)c2ccccn2)cc1
[2]; [14]
  Potency: inconclusive: 19.4 µM [fluorescent, partial curve]
  activity, negative = inhibition: inconclusive: -32.7% [at 35.3 µM]
[7]
  Potency: active: 35.4 µM and inactive
[9]
  Potency: active: 7.06 µM and active: 12.3 µM

## O=C(N/N=C/c1ccccc1O)c1ccncc1
[2]; [14]
  activity, negative = inhibition: inconclusive: 15.8% [at 35.3 µM]

## Oc1ccc(Cl)cc1Sc1cc(Cl)ccc1O
[2]; at 35.3 µM (top of the series)
  activity, negative = inhibition: inconclusive: -14.6%
[2]; at 76.8 µM (top of the series)
  activity, negative = inhibition: inconclusive: -31.7%
[3]
  Potency: inconclusive: 16.8 µM [cytotoxic, full curve]
[10]
  Potency: inconclusive: 76.8 µM [activator, single point]
[4]
  Potency: inconclusive: 33.5 µM [cytotoxic, single point]
[5]
  Potency: inconclusive: 29.8 µM [cytotoxic, partial curve]
[6]
  Potency: inconclusive: 33.5 µM [activator, single point]
[7]
  Potency: inconclusive: 63.2 µM [inhibitor, partial curve, poor fit]
[11]
  Potency: inconclusive: 30.8 µM [inhibitor, partial curve]

## CCCCCCCCCCCC[N+](C)(C)Cc1ccccc1
[1]
  Potency: inconclusive: 47.4 µM [activator, single point]
[3]
  Potency: inconclusive: 67.3 µM [cytotoxic, single point] and inconclusive: 33.5 µM [cytotoxic]
[12]
  Potency: inconclusive: 75.5 µM [activator]
[9]
  Potency: inconclusive: 62.1 µM [inhibitor, partial curve] and active: 77.2 µM and inconclusive: 38.9 µM [inhibitor, single point]

## Nc1nc(=S)c2[nH]cnc2[nH]1
[2]; at 35.3 µM (top of the series)
  activity, negative = inhibition: inconclusive: -41%
[2]; at 76.8 µM (top of the series)
  activity, negative = inhibition: inconclusive: -41.1%
[3]
  Potency: inactive
[4]
  Potency: active: 5.31 µM and active: 9.69 µM and active: 3.76 µM
[5]
  Potency: inconclusive: 5.96 µM [cytotoxic, full curve] and inconclusive: 8.63 µM [cytotoxic, full curve] and inconclusive: 13.3 µM [cytotoxic, partial curve]
[6]
  Potency: inconclusive: 59.6 µM [activator, partial curve, poor fit]
[13]
  Potency: inconclusive: 89.4 µM [inhibitor, single point] and inconclusive: 43.6 µM [inhibitor, single point]
